Data reported in paper PMC13586215.
No constants are given. Whether binding was seen depends on the method and setting. In cells and extracts the contact can be indirect. Some binding calls cover weakened binding; strength is not graded here. For some assays here: Sequences can lack the tags named with a protein.

Sequences of proteins named here, by UniProt entry; tags and fusion partners are left off. A change or cut given only in a name is not applied to a line headed by its entry.
UniProt Q17RN3: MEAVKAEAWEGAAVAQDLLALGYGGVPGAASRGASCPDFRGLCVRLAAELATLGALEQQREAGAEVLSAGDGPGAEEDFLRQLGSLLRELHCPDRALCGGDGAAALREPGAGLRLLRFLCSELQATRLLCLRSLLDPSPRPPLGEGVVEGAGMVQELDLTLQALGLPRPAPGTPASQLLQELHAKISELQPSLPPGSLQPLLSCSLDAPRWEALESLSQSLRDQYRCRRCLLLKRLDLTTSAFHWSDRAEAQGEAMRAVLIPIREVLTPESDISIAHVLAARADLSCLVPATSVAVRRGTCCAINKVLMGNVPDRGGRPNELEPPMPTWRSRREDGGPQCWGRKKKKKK

B1: RTCB (endogenous) (enzyme, UniProt Q9Y3I0 1-505)
chain: MSRSYNDELQFLEKINKNCWRIKKGFVPNMQVEGVFYVNDALEKLMFEELRNACRGGGVGGFLPAMKQIGNVAALPGIVHRSIGLPDVHSGYGFAIGNMAAFDMNDPEAVVSPGGVGFDINCGVRLLRTNLDESDVQPVKEQLAQAMFDHIPVGVGSKGVIPMNAKDLEEALEMGVDWSLREGYAWAEDKEHCEEYGRMLQADPNKVSARAKKRGLPQLGTLGAGNHYAEIQVVDEIFNEYAAKKMGIDHKGQVCVMIHSGSRGLGHQVATDALVAMEKAMKRDKIIVNDRQLACARIASPEGQDYLKGMAAAGNYAWVNRSSMTFLTRQAFAKVFNTTPDDLDLHVIYDVSHNIAKVEQHVVDGKERTLLVHRKGSTRAFPPHHPLIAVDYQLTGQPVLIGGTMGTCSYVLTGTEQGMTETFGTTCHGAGRALSRAKSRRNLDFQDVLDKLADMGIAIRVASPKLVMEEAPESYKNVTDVVNTCHDAGISKKAIKLRPIAVIKG
B2: DDX1 (endogenous) (enzyme, UniProt Q92499-1 1-740)
chain: MAAFSEMGVMPEIAQAVEEMDWLLPTDIQAESIPLILGGGDVLMAAETGSGKTGAFSIPVIQIVYETLKDQQEGKKGKTTIKTGASVLNKWQMNPYDRGSAFAIGSDGLCCQSREVKEWHGCRATKGLMKGKHYYEVSCHDQGLCRVGWSTMQASLDLGTDKFGFGFGGTGKKSHNKQFDNYGEEFTMHDTIGCYLDIDKGHVKFSKNGKDLGLAFEIPPHMKNQALFPACVLKNAELKFNFGEEEFKFPPKDGFVALSKAPDGYIVKSQHSGNAQVTQTKFLPNAPKALIVEPSRELAEQTLNNIKQFKKYIDNPKLRELLIIGGVAARDQLSVLENGVDIVVGTPGRLDDLVSTGKLNLSQVRFLVLDEADGLLSQGYSDFINRMHNQIPQVTSDGKRLQVIVCSATLHSFDVKKLSEKIMHFPTWVDLKGEDSVPDTVHHVVVPVNPKTDRLWERLGKSHIRTDDVHAKDNTRPGANSPEMWSEAIKILKGEYAVRAIKEHKMDQAIIFCRTKIDCDNLEQYFIQQGGGPDKKGHQFSCVCLHGDRKPHERKQNLERFKKGDVRFLICTDVAARGIDIHGVPYVINVTLPDEKQNYVHRIGRVGRAERMGLAISLVATEKEKVWYHVCSSRGKGCYNTRLKEDGGCTIWYNEMQLLSEIEEHLNCTISQVEPDIKVPVDEFDGKVTYGQKRAAGGGSYKGHVDILAPTVQELAALEKEAQTSFLHLGYLPNQLFRTF
B3: CGI-99 (endogenous) (protein, UniProt Q9Y224 1-244)
chain: MFRRKLTALDYHNPAGFNCKDETEFRNFIVWLEDQKIRHYKIEDRGNLRNIHSSDWPKFFEKYLRDVNCPFKIQDRQEAIDWLLGLAVRLEYGDNAEKYKDLVPDNSKTADNATKNAEPLINLDVNNPDFKAGVMALANLLQIQRHDDYLVMLKAIRILVQERLTQDAVAKANQTKEGLPVALDKHILGFDTGDAVLNEAAQILRLLHIEELRELQTKINEAIVAVQAIIADPKTDHRLGKVGR
B4: Ashwin (endogenous) (protein, UniProt Q9BVC5-1 1-232)
chain: MAGDVGGRSCTDSELLLHPELLSQEFLLLTLEQKNIAVETDVRVNKDSLTDLYVQHAIPLPQRDLPKNRWGKMMEKKREQHEIKNETKRSSTVDGLRKRPLIVFDGSSTSTSIKVKKTENGDNDRLKPPPQASFTSNAFRKLSNSSSSVSPLILSSNLPVNNKTEHNNNDAKQNHDLTHRKSPSGPVKSPPLSPVGTTPVKLKRAAPKEEAEAMNNLKPPQAKRKIQHVTWP

Biological target: N-terminally FLAG-HA-tagged, full-length FAM98A (human) (UniProt Q8NCA5)
Assay: co-IP; anti-FLAG M2 magnetic beads with cleared lysates of doxycycline-induced HEK FITR stable lines; lysis buffer 30 mM HEPES pH 7.3, 100 mM KCl, 5 mM MgCl2, 1.0 % NP-40, 10 % glycerol; binding 2 h at 4 °C, five washes, elution with 3xFLAG peptide; western blot of input and eluate

Row | Molecule | binding
1 | B1 | binds
2 | B2 | binds
3 | B3 | binds
4 | B4 | no binding

Biological target: T1, FLAG-HA-RTCB (human) (UniProt Q9Y3I0)
T1 sequence: B1 chain
Assay: as above

Row | Molecule | binding
5 | FAM98A (endogenous) (from UniProt Q8NCA5 1-518) | binds
6 | FAM98C (endogenous) (from UniProt Q17RN3-1 1-349) | binds

Biological target: FLAG-HA-tagged FAM98A(1-335) (human) (UniProt Q8NCA5)
Assay: as above

Row | Molecule | binding
7 | B1 | binds
8 | B2 | binds
9 | B3 | binds
10 | B4 | no binding

Biological target: FLAG-HA-tagged FAM98C (human) (UniProt Q17RN3)
Assay: as above

Row | Molecule | binding
11 | B1 | binds
12 | B2 | binds
13 | B3 | binds
14 | B4 | no binding
